Laboratory results: the supplement of paper PMC7726561
The full ranking holds about 1,400 sequences; the median of “thermal melting temperature (Tm) of peptide-HLA complex” is about 60, and the lowest 2% start at about 45. The list shows a part of the results.

B1: unnamed (peptide)
chain: APNLGRSFHIL
B2: unnamed (peptide)
chain: HPLSNPAEL
B3: unnamed (peptide)
chain: SPSLPSRTL
B4: unnamed (peptide)
chain: LPDGKRAVV
B5: unnamed (peptide)
chain: YPMDLGGRNFL
B6: unnamed (peptide)
chain: TPRSGEGTVL
B7: unnamed (peptide)
chain: KPFGYGYPTL
B8: unnamed (peptide)
chain: APRRGPALL
B9: unnamed (peptide)
chain: KPYLPSRAL
B10: unnamed (peptide)
chain: QPITPGPSI
B11: unnamed (peptide)
chain: RPAVIGDVL
B12: unnamed (peptide)
chain: LPRPWSVPPL
B13: unnamed (peptide)
chain: RPIASGPVV
B14: unnamed (peptide)
chain: VPTLRSEL
B15: unnamed (peptide)
chain: TPRIPSRLL
B16: unnamed (peptide)
chain: SPHSPFYQL
B17: unnamed (peptide)
chain: FPRITSQYL
B18: unnamed (peptide)
chain: VPRGPIPSEL
B19: unnamed (peptide)
chain: HPRPPIPLSL
B20: unnamed (peptide)
chain: MPKKDARTL
B21: unnamed (peptide)
chain: RPRGFAYVQF
B22: unnamed (peptide)
chain: APVLPHTAV
B23: unnamed (peptide)
chain: APAQARPTVF
B24: unnamed (peptide)
chain: KPNDSRALQL
B25: unnamed (peptide)
chain: SPRSPISPEL
B26: unnamed (peptide)
chain: SPGLKSVL
B27: unnamed (peptide)
chain: IPRVPSLSV
B28: unnamed (peptide)
chain: VPRPVLRAL
B29: unnamed (peptide)
chain: MVASKRKEL
B30: unnamed (peptide)
chain: YPADKISIL
B31: unnamed (peptide)
chain: NPRTKALVL
B32: unnamed (peptide)
chain: VIRELSRAL
B33: unnamed (peptide)
chain: RPQLPQVL
B34: unnamed (peptide)
chain: VPSWSKVNQGL
B35: unnamed (peptide)
chain: RPYMDAVVSL
B36: unnamed (peptide)
chain: FPIPAAEVDRL
B37: unnamed (peptide)
chain: GVRPPAPSL
B38: unnamed (peptide)
chain: LPRRPNDIYV
B39: unnamed (peptide)
chain: YPYPYPHTL
B40: unnamed (peptide)
chain: LPKKNGLYL
B41: unnamed (peptide)
chain: LPSLRILYM
B42: unnamed (peptide)
chain: EPRPGAGSL
B43: unnamed (peptide)
chain: TPLLMQALPM
B44: unnamed (peptide)
chain: LPRPVPQNL
B45: unnamed (peptide)
chain: QPLAPSGLTL
B46: unnamed (peptide)
chain: KPMPSLPQL
B47: unnamed (peptide)
chain: LPAPKWTEL
B48: unnamed (peptide)
chain: APHLVGPHL
B49: unnamed (peptide)
chain: APKPEPVPV
B50: unnamed (peptide)
chain: IPREVSETL
B51: unnamed (peptide)
chain: APRWGNPRAL
B52: unnamed (peptide)
chain: RVREITENL
B53: unnamed (peptide)
chain: TPGPAGSRL
B54: unnamed (peptide)
chain: YPNERFELL
B55: unnamed (peptide)
chain: KPHIGLTEL
B56: unnamed (peptide)
chain: KPSESNVTIL

These sequences were tested against HLA-B*07:02 (assay: thermal melting temperature (Tm) of peptide-HLA complex; higher = more thermostable pHLA complex). Conditions: C1R-B*07:02.
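Note: cell lysates heated 10 min at 37–73 °C, remaining pHLA pulled down with pan-class I antibody, peptides quantified by DIA-MS versus 37 °C, Tm where half the complex is lost.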

Point of comparison: B27, thermal melting temperature 65 °C. Against it:
- B1 — lower, 61.5 °C
- B2 — lower, 57 °C
- B3 — lower, 59.4 °C
- B4 — lower, 60.7 °C
- B5 — lower, 61.5 °C
- B6 — lower, 55.4 °C
- B7 — lower, 60 °C
- B8 — lower, 62.1 °C
- B9 — lower, 60.5 °C
- B10 — lower, 58.8 °C
- B11 — lower, 59.3 °C
- B12 — lower, 60 °C
- B13 — lower, 58.1 °C
- B14 — lower, 62.9 °C
- B15 — lower, 57.6 °C
- B16 — lower, 60.8 °C
- B17 — lower, 62.3 °C
- B18 — lower, 62 °C
- B19 — lower, 57.1 °C
- B20 — lower, 58.4 °C
- B21 — lower, 50.1 °C
- B22 — lower, 59.3 °C
- B23 — lower, 58.2 °C
- B24 — lower, 59.1 °C
- B25 — lower, 59.5 °C
- B26 — lower, 59.4 °C
- B28 — lower, 61 °C
- B29 — lower, 58.7 °C
- B30 — lower, 57.4 °C
- B31 — lower, 57.3 °C
- B32 — lower, 45.3 °C
- B33 — lower, 60.7 °C
- B34 — lower, 61.2 °C
- B35 — lower, 59.6 °C
- B36 — lower, 62.2 °C
- B37 — lower, 58.7 °C
- B38 — lower, 60.7 °C
- B39 — lower, 60.9 °C
- B40 — lower, 58.8 °C
- B41 — lower, 61.4 °C
- B42 — lower, 53.3 °C
- B43 — lower, 50.7 °C
- B44 — lower, 61.4 °C
- B45 — lower, 62.7 °C
- B46 — lower, 44.9 °C
- B47 — lower, 62.9 °C
- B48 — lower, 60.3 °C
- B49 — lower, 54.2 °C
- B50 — lower, 61.9 °C
- B51 — lower, 59.2 °C
- B52 — lower, 57 °C
- B53 — lower, 53.1 °C
- B54 — lower, 63.1 °C
- B55 — lower, 60.7 °C
- B56 — lower, 58.3 °C
